In patent publication US20240325499A1, “FGF21 COMPOUND / GLP-1R AGONIST COMBINATIONS WITH OPTIMIZED ACTIVITY RATIO” (SANOFI, priority 2018, published 2024):

Target: T1, human GLP-1 receptor (Homo sapiens, UniProt P43220)
T1 construct: expressed in transfected cells; host or cells: HEK-293 cell line
Experiment: cAMP response (HTRF) in HEK-293 cell line stably expressing human GLP-1 receptor
Format: cell-based
Details: for EC50: cAMP response, HEK-293 cells stably expressing human GLP-1 receptor; for Ratio GLP-1R agonistic activity: native GLP-1(7-36)/tested GLP-1R agonist: ratio X = activity X-fold reduced versus native GLP-1(7-36), HEK-293, cAMP
Protocol: The cAMP content of cells was determined using a kit from Cisbio Corp. (cat. no. 62AM4PEC) based on HTRF (Homogenous Time Resolved Fluorescence). For preparation, cells were split into T175 culture flasks and grown overnight to near confluence in medium (DMEM/10% FBS). Medium was then removed and cells washed with PBS lacking calcium and magnesium, followed by proteinase treatment with accutase (Sigma-Aldrich cat. no. A6964). Detached cells were washed and resuspended in assay buffer (1x HBSS; 20 mM HEPES, 0.1% BSA, 2 mM IBMX) and cellular density determined. They were then diluted to 4×10^5 cells/mL and 25 μL-aliquots dispensed into the wells of 96-well plates. For measurement, 25 μL of test compound in assay buffer was added to the wells, followed by incubation for 30 minutes at room temperature. After addition of HTRF reagents diluted in lysis buffer (kit components), the plates were incubated for 1 h, followed by measurement of the fluorescence ratio at 665/620 nm.

T1 sequence (P43220 24-463): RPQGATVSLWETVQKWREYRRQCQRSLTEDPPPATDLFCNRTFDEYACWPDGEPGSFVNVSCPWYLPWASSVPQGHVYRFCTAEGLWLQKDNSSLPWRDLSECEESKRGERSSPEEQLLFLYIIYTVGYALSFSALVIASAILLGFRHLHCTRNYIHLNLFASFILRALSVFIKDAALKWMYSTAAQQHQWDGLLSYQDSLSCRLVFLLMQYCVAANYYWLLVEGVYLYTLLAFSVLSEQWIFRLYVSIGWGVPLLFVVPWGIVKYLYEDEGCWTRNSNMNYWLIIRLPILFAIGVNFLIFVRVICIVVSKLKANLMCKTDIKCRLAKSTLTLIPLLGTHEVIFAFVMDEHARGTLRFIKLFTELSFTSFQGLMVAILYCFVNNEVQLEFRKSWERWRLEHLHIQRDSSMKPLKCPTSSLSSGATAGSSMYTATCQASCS

B1: 36 (protein)
chain: GHGEGTFTSDLSIQLEEEAVRLFIEWLLAGGPKKQRLSGGGGGGGSGGGGSGGGGSA[sequence of human IgG4 Fc with changes not given]GGGSGSAHPIPDSSPLLQFGGQVRQRYLYTDDACQTEAHLEIREDGTVGGAADQSPESLLQLKALKPGVIQILGVKTSRFLCQRPDGALYGSLHFDPEACSFRELLLEDGYNVYQSEAHGLPLHLPGCKSPHRDPAPRGPARFLPLPGLPPAPPEPPGILAPQPPDVGSSDPLSMVGSQGRSPSYAS
modifications: GLP1(7-36) insG,A8G,V16L,S18I,Y19Q,G22E,Q23E,A25V,K26R,E27L,A30E,V33L,K34A,R 36G,insPKKQRLS_[19GS]_IgG4 Fc_variant [7GS]_FGF21(His29-Ser209)Q55C,N149C,delP199
- EC50: 0.0146 nM
- Ratio GLP-1R agonistic activity: native GLP-1(7-36)/tested GLP-1R agonist: 18.9

B2: 26 (protein)
chain: HGEGTFTSDLSIQLDEEAVRLFIEWLLATGPVSGAPPPSGGGGGGGSGGGGSGGGGSA[sequence of human IgG4 Fc with changes not given]GGGSGSAHPIPDSSPLLQFGGQVRQRYLYTDDACQTEAHLEIREDGTVGGAADQSPESLLQLKALKPGVIQILGVKTSRFLCQRPDGALYGSLHFDPEACSFRELLLEDGYNVYQSEAHGLPLHLCGNKSPHRDPAPRGPARFLPLPGLPPAPPEPPGILAPQPPDVGSSDPLSMVGSQGRSPSYAS
modifications: GLP1(7-36) A8G,V16L,S18I,Y19Q,E21D,G22E,Q23E,A25V,K26R,E27L,A30E,V33L,K34A,G 35T,R36G,insPVSGAPPPS_[19GS]_IgG4 Fc_variant [7GS]_FGF21(His29-Ser209)Q55C,P147C,delP199
- EC50: 0.0605 nM
- Ratio GLP-1R agonistic activity: native GLP-1(7-36)/tested GLP-1R agonist: 78.6

B3: 32 (protein)
chain: HGEGTFTSDLSKQLEEEAVQLFIEWLLATGGGGGGGGSGGGGSGGGGSA[sequence of human IgG4 Fc with changes not given]GGGSGSAHPIPDSSPLLQFGGQVRQRYLYTDDACQTEAHLEIREDGTVGGAADQSPESLLQLKALKPGVIQILGVKTSRFLCQRPDGALYGSLHFDPEACSFRELLLEDGYNVYQSEAHGLPLHLPGCKSPHRDPAPRGPARFLPLPGLPPAPPEPPGILAPQPPDVGSSDPLSMVYPSQGRSPSYAS
modifications: GLP1(7-36) A8G,V16L,S18K,Y19Q,G22E,Q23E,A25V,K26Q,E27L,A30E,V33L,K34A,G35T,R 36G_[19GS]_IgG4 Fc_variant [7GS] FGF21(His29-Ser209)Q55C,N149C,G198Y
- EC50: 0.063 nM
- Ratio GLP-1R agonistic activity: native GLP-1(7-36)/tested GLP-1R agonist: 81.9

B4: 33 (protein)
chain: HGEGTFTSDLSKQLEEEAVQLFIEWLLATGPSSGEPPPEGGGGGGGSGGGGSGGGGSA[sequence of human IgG4 Fc with changes not given]GGGSGSAHPIPDSSPLLQFGGQVRQRYLYTDDACQTEAHLEIREDGTVGGAADQSPESLLQLKALKPGVIQILGVKTSRFLCQRPDGALYGSLHFDPEACSFRELLLEDGYNVYQSEAHGLPLHLPGCKSPHRDPAPRGPARFLPLPGLPPAPPEPPGILAPQPPDVGSSDPLSMVYPSQGRSPSYAS
modifications: GLP1(7-36) A8G,V16L,S18K,Y19Q,G22E,Q23E,A25V,K26Q,E27L,A30E,V33L,K34A,G35T,R 36G,insPSSGEPPPE_[19GS]_IgG4 Fc_variant [7GS]_FGF21(His29-Ser209)Q55C,N149C,G198Y
- EC50: 0.126 nM
- Ratio GLP-1R agonistic activity: native GLP-1(7-36)/tested GLP-1R agonist: 163.6

B5: 30 (protein)
chain: HGEGTFTSDLSKQLEEEAVQLFIEWLLATGPSSGEPPPESGGGGGGGSGGGGSGGGGSA[sequence of human IgG4 Fc with changes not given]GGGSGSAHPIPDSSPLLQFGGQVRQRYLYTDDACQTEAHLEIREDGTVGGAADQSPESLLQLKALKPGVIQILGVKTSRFLCQRPDGALYGSLHFDPEACSFRELLLEDGYNVYQSEAHGLPLHLPGCKSPHRDPAPRGPARFLPLPGLPPAPPEPPGILAPQPPDVGSSDPLSMVYPSQGRSPSYAS
modifications: GLP1(7-36) A8G,V16L,S18K,Y19Q,E21D,G22E,Q23E,A25V,K26Q,E27L,A30E,V33L,K34A,G 35T,R36G,insPSSGEPPPES_[19GS]_IgG4 Fc_variant [7GS]_FGF21(His29-Ser209)Q55C,N149C,G198Y
- EC50: 0.173 nM
- Ratio GLP-1R agonistic activity: native GLP-1(7-36)/tested GLP-1R agonist: 224.6

B6: 27 (protein)
chain: HGEGTFTSDLSIQLDEEAVRLFIEWLEATGPVSGAPPPSGGGGGGGSGGGGSGGGGSA[sequence of human IgG4 Fc with changes not given]GGGSGSAHPIPDSSPLLQFGGQVRQRYLYTDDACQTEAHLEIREDGTVGGAADQSPESLLQLKALKPGVIQILGVKTSRFLCQRPDGALYGSLHFDPEACSFRELLLEDGYNVYQSEAHGLPLHLPGCKSPHRDPAPRGPARFLPLPGLPPAPPEPPGILAPQPPDVGSSDPLSMVGSQGRSPSYAS
modifications: GLP1(7-36) A8G,V16L,S18I,Y19Q,E21D,G22E,Q23E,A25V,K26R,E27L,A30E,V33E,K34A,G 35T,R36G,insPVSGAPPPS_[19GS]_IgG4 Fc_variant [7GS]_FGF21(His29-Ser209)Q55C,N149C,delP199
- EC50: 0.675 nM
- Ratio GLP-1R agonistic activity: native GLP-1(7-36)/tested GLP-1R agonist: 877.1
